Laboratory results from patent US20120010254A1 (priority 2008, published 2012).

For CCC(CC)OC1CC(C(=O)O)=CC(n2cc(CCc3ccccc3)nn2)C1NC(C)=O (stereo not shown) [Compound 4, 4-Acetylamino-5-(1-ethyl-propoxy)-3-(4-phenethyl-[1,2,3]triazol-1-yl)-cyclohex-1-enecarboxylic acid], the Solubility in water was “insoluble”.
